Holding throughout (conditions): 20 mM HEPES pH 7.9, 100 mM NaCl, 1 mM DTT, 0.2 mg/mL BSA, 0.02% Triton X-100, 2% milk, 0.4 mg/mL salmon testes DNA; 1 h; temperature not stated; high values mean tight binding; double strand, one strand shown; sequences stand for … in GCCTAGCAC…GTGCTAGGTCTTGATTCGCTTGACGCTGCTG
The target in test [1] is PU.1 (IVT) (UniProt P17947). The test is described as follows: protein-binding microarray (PBM).
In test [2] the target is PU.1 (endogenous, THP-1 nuclear extract) (UniProt P17947). The test is described as follows: nuclear extract protein-binding microarray (nextPBM).
Test [3] addresses T1, FLI1 (endogenous, THP-1 nuclear extract) (UniProt Q01543).
T1 sequence: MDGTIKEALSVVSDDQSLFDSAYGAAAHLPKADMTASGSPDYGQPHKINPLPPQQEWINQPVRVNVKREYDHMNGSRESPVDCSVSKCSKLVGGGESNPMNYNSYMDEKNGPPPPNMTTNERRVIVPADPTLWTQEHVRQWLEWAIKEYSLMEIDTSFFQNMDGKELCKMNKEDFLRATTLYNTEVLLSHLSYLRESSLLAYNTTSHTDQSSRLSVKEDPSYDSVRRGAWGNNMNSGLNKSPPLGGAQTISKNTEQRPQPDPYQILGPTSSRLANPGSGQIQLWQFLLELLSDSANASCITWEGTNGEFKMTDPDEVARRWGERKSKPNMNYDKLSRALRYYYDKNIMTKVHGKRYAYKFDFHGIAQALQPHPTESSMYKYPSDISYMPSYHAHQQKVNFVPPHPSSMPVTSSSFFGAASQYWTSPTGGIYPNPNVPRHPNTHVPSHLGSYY
The description is as above.

The subject of test [4] is PU.1 (endogenous, THP-1 nuclear extract) + IRF8 (endogenous, THP-1 nuclear extract). Described as above.

The results in this text go back to publication PMC6451091.

Some of the results follow. For some of these results: At the low end of the ranking the order means little. For some of these results: The protein was read in a cell extract, so binding may be indirect.

TATTTCCATAGCTAATACAA: the binding signal in test [1] is 0.409 z-score; in test [2] it was -0.428 z-score; in test [3] it was 0.444 z-score; in test [4], 0.0522 z-score.

CCTCCACTTTGGGTAAATCT: the binding signal in test [1] is -0.143 z-score; in test [2] it was -0.54 z-score; in test [3] it was -0.463 z-score; in test [4], -0.941 z-score.

Turning to TGAAAGAGGAAGTGAAACCA, the binding signal in test [1] was 7.95 z-score; in test [2], 7.57 z-score; in test [3] it was 4.79 z-score; in test [4], 83.6 z-score.

On to TTTCATGGTGTCATGTGAAC, for which the binding signal in test [1] is 0.0216 z-score; in test [2] it was -0.134 z-score; in test [3], -0.647 z-score; in test [4] it was 1.59 z-score.

For GGGAGAGGCAGGAAGGAGCC, the binding signal in test [1] was found to be 0.643 z-score; in test [2], 0.709 z-score; in test [3], 2.42 z-score; in test [4], 0.506 z-score.

For the sequence CTGCAGCCGTCTGCTGTATC, the binding signal in test [1] is -0.933 z-score; in test [2] it was -0.143 z-score; in test [3], -0.6 z-score; in test [4], 1.25 z-score.

With AGAGAGTATCTCACCCTGTT, the binding signal in test [1] was -0.428 z-score; in test [2] it was -0.292 z-score; in test [3], -0.473 z-score; in test [4], 0.532 z-score.

GAGAAGGCCAAACCCTGGGG: the binding signal in test [1] is -0.808 z-score; in test [2], 0.0959 z-score; in test [3], -1.03 z-score; in test [4], 0.754 z-score.

Take CTCCAAAGAGCTCTGGGGGA: the binding signal in test [1] is -0.701 z-score; in test [2] it was -0.526 z-score; in test [3], -0.202 z-score; in test [4], -0.621 z-score.

On to CCACGGCGCCCTGCCTAGTT, for which the binding signal in test [1] is -0.754 z-score; in test [2], -0.178 z-score; in test [3], -0.786 z-score; in test [4], 1.91 z-score.

As for CTACTGTTTCTGCTTGTTTC, the binding signal in test [1] was 0.0176 z-score; in test [2] it was 0.024 z-score; in test [3] it was -0.169 z-score; in test [4], 0.596 z-score.

GGAACAAACGTGATGGTCCA: the binding signal in test [1] was -0.135 z-score; in test [2], 0.189 z-score; in test [3], 0.111 z-score; in test [4], -0.569 z-score.

As for TCGGTCTGGCATGATGAAGC, the binding signal was -0.297 z-score in test [1], -0.338 z-score in test [2], -0.619 z-score in test [3] and 0.412 z-score in test [4].

Turning to CTTGAAGAGAACACAACGCT, the binding signal in test [1] is -0.0895 z-score; in test [2], -0.395 z-score; in test [3], -0.708 z-score; in test [4], 0.464 z-score.

Turning to CAAGGCTGACTGTGGAACCC, the binding signal in test [1] was -0.04 z-score; in test [2], 0.235 z-score; in test [3] it was -0.514 z-score; in test [4], 0.523 z-score.

As for GCATCGTCGGTGTATTTTGT, the binding signal in test [1] is -0.354 z-score; in test [2] it was -0.482 z-score; in test [3], -0.272 z-score; in test [4] it was 0.159 z-score.

TCGTCACCACTTATTTTGAA: the binding signal in test [1] is 0.0665 z-score; in test [2], -0.416 z-score; in test [3], -0.658 z-score; in test [4], -0.637 z-score.

As for GCACATGATTCTGGAAGCTG, the binding signal is -0.133 z-score in test [1], 0.48 z-score in test [2], 0.925 z-score in test [3] and -0.621 z-score in test [4].

As for CCAGTGCCATATAAACAATA, the binding signal in test [1] was -0.438 z-score; in test [2], -0.373 z-score; in test [3], 0.0288 z-score; in test [4], -0.334 z-score.

With TGGAGCCAAGATTTCATTGG, the binding signal was -0.494 z-score in test [1], -0.2 z-score in test [2], -0.625 z-score in test [3] and -0.0396 z-score in test [4].

Take GCAAAATGCTACTTTAGTTG: the binding signal in test [1] was -0.574 z-score; in test [2], -0.609 z-score; in test [3] it was -0.17 z-score; in test [4] it was -0.283 z-score.

As for CATTGGAAAGTGGGTTGGAA, the binding signal came out at 1.04 z-score in test [1], 0.901 z-score in test [2], 0.546 z-score in test [3] and 0.783 z-score in test [4].

With GAAAGACTCTGAGTCTAAGC, the binding signal is -0.601 z-score in test [1], -0.658 z-score in test [2], -0.511 z-score in test [3] and -1.1 z-score in test [4].

As for GGGAGATTTCAGGCACTTCC, the binding signal is 0.717 z-score in test [1], 1.1 z-score in test [2], 3.2 z-score in test [3] and -0.31 z-score in test [4].

Consider TGTTTGACTTGGTGATCTCT, for which the binding signal was -0.467 z-score in test [1], -0.549 z-score in test [2], -0.342 z-score in test [3] and -0.571 z-score in test [4].

CGGATGAGGGAACATTCTGC: the binding signal is 0.52 z-score in test [1], 0.559 z-score in test [2], 3.11 z-score in test [3] and -1.6 z-score in test [4].

Take GCAGACAGTGATTTAGGCTG: the binding signal is -0.454 z-score in test [1], -0.256 z-score in test [2], -0.148 z-score in test [3] and 0.385 z-score in test [4].

As for CAGGGCCATTCCCAGGAAAA, the binding signal in test [1] was -0.753 z-score; in test [2] it was -0.199 z-score; in test [3], 0.841 z-score; in test [4] it was -0.214 z-score.

For CTATTGTCACAGTTGCTAGG, the binding signal is -0.162 z-score in test [1], -0.306 z-score in test [2], -0.413 z-score in test [3] and -1.49 z-score in test [4].

For the sequence CTGTGCTAAAATCTGCCTCC, the binding signal in test [1] was -0.105 z-score; in test [2], -0.0706 z-score; in test [3], -0.218 z-score; in test [4] it was -1.35 z-score.

For the sequence GGCCACGTTACTTTCTGCCC, the binding signal in test [1] is -0.698 z-score; in test [2], -0.185 z-score; in test [3], -0.47 z-score; in test [4] it was -0.104 z-score.

As for GGCTGGCCTGCGTGAAACTC, the binding signal is -0.665 z-score in test [1], -0.419 z-score in test [2], -0.861 z-score in test [3] and 1.8 z-score in test [4].

On to TGACTCACAGACCAAGACTT, for which the binding signal is -0.867 z-score in test [1], -0.286 z-score in test [2], -0.555 z-score in test [3] and 0.976 z-score in test [4].

For the sequence AGGTTCAGCCTGGTTATTTT, the binding signal was 0.202 z-score in test [1], -0.484 z-score in test [2], -0.357 z-score in test [3] and 1.33 z-score in test [4].

Take AGTGCTATTAATATGATTCA: the binding signal in test [1] is 0.117 z-score; in test [2], -0.00329 z-score; in test [3], -0.115 z-score; in test [4], -1.38 z-score.

As to TGGAATTGTTTTTAATCCAT, the binding signal is -0.657 z-score in test [1], -0.233 z-score in test [2], 0.0222 z-score in test [3] and -1.13 z-score in test [4].

For AGGGTGTCTTAGTTCATTTG, the binding signal in test [1] was 0.521 z-score; in test [2], -0.317 z-score; in test [3], -0.365 z-score; in test [4], 1.11 z-score.

Consider AGGTGATCTGCCCACCTCAG, for which the binding signal in test [1] was -0.382 z-score; in test [2], -0.304 z-score; in test [3], -0.56 z-score; in test [4], 0.462 z-score.

As for GAAATCAGCAAAGCCAAGCC, the binding signal in test [1] was -0.64 z-score; in test [2] it was -0.513 z-score; in test [3] it was -1.47 z-score; in test [4], -0.686 z-score.

Consider TCTCACTGAGAAAGTTGATA, for which the binding signal in test [1] is -0.0484 z-score; in test [2], -0.188 z-score; in test [3] it was -0.0155 z-score; in test [4], -0.348 z-score.

On to GCTGATAACCCAAAGAAGAG, for which the binding signal is -0.488 z-score in test [1], -0.665 z-score in test [2], -0.0876 z-score in test [3] and 0.839 z-score in test [4].

Regarding TTATTGTTTGAGATTTTATC, the binding signal in test [1] is 0.0357 z-score; in test [2], -0.505 z-score; in test [3], -0.725 z-score; in test [4], -0.27 z-score.

For GATCGGGGATGAGAAGGGGA, the binding signal in test [1] was -0.457 z-score; in test [2], -0.312 z-score; in test [3], -0.175 z-score; in test [4], -0.242 z-score.

GCCTCCGTTCGGCCCCGCCC: the binding signal in test [1] was -0.709 z-score; in test [2] it was -0.242 z-score; in test [3], 0.406 z-score; in test [4], -1.3 z-score.

In the case of CCAGCTTCAGTTTGCTGAGT, the binding signal in test [1] was -0.873 z-score; in test [2], -0.186 z-score; in test [3], -0.229 z-score; in test [4], 0.964 z-score.

Take CGCAAGGCTGCCTGAAACTC: the binding signal in test [1] is -0.36 z-score; in test [2], -0.594 z-score; in test [3], -0.468 z-score; in test [4], 1.98 z-score.

For CTGCCAGCTGCGTGAAAGCA, the binding signal in test [1] was -0.251 z-score; in test [2] it was -0.458 z-score; in test [3], -0.132 z-score; in test [4], 0.191 z-score.

Regarding CAAGGCTGCAATGAGTCATG, the binding signal is -0.036 z-score in test [1], -0.209 z-score in test [2], -0.686 z-score in test [3] and 0.69 z-score in test [4].

Turning to TGGCTCCTTGCAGAGAAACC, the binding signal in test [1] is -0.94 z-score; in test [2], -0.112 z-score; in test [3], -0.126 z-score; in test [4], -0.539 z-score.

Regarding GAGAAGGCTGCATGAAACTC, the binding signal in test [1] is -0.593 z-score; in test [2], -0.326 z-score; in test [3], -0.128 z-score; in test [4], 3.01 z-score.

For the sequence TTGCCGTGGCGACTGCGCGC, the binding signal is -0.873 z-score in test [1], -0.223 z-score in test [2], -0.213 z-score in test [3] and 0.506 z-score in test [4].

For GACGCTGCTGCGTGAAACTA, the binding signal was -0.415 z-score in test [1], -0.417 z-score in test [2], -0.591 z-score in test [3] and 3.54 z-score in test [4].
